In US12551573B2, “Compositions and methods for the targeting of PCSK9” (Scribe Therapeutics Inc., priority 2022, dated 2026):

B1: DOMAIN_1875 (protein, listed as Gorilla sp.)
chain: MAALFLSAPHQAKVTFEDVAVYLSREEWGRLGPAQRGLYRDVMLETYGNLVSLGVGPAGPKPGVISQLERGDEPWVLDVQG
B2: DOMAIN_1382 (protein, listed as Gorilla sp.)
chain: MPLKARYQEMVTFEDVAVHFTKTEWTGLSPAQRALYRSVMLENFGNLTALGYPVPKPALISLLEGGDMAWGLEAQDDPPAE
B3: DOMAIN_2229 (protein, listed as Pongo sp.)
chain: MAQESVMFSDVSVDFSQEEWECLNDDQRDLYRDVMLENYSNLVSMAGHSVSKPNVISYLEQGKEPWLVDRELTRGQWPVLE
B4: DOMAIN_1893 (protein, listed as Gorilla sp.)
chain: MAMSQESLTFKDVFVDFTLEEWQQLDSAQKNLYRDVMLENYSHLVSVGYLVEKPDVIFRLGPGEESWMADGGTPVRTCAGE
B5: DOMAIN_2590 (protein, listed as Pongo sp.)
chain: MMTAVSLTTRPQESVAFEDVAVYFTTKEWAIMVPAERALYRDVMLENYEAVAFVVSPTSKPALVSHLEQGKESCFTRPQGV
B6: DOMAIN_2014 (protein, listed as Pongo sp.)
chain: APLLAPRPGETRPGCRKPGAVSFADVAVYFSPEEWGCLRPAQRALYRDVMRETYGHLGALGFPGPKPALISWMEQESEAWS
B7: DOMAIN_1870 (protein, listed as Gorilla sp.)
chain: MDMAQEPVTFRDVAIYFSREEWACLEPSQRALYRDVMLDNFSSVAALGFCSPRPDLVSRLEQWEEPWVEDWERPELQAVQR
B8: DOMAIN_32351 (protein, listed as Homo sapiens)
chain: RVLTFRDVAVEFSPEEWECLDSAQQRLYRDVMLENYGNLFSLGLAIFKPDLITYLEQRKEPWNARRQKTVAKHPAGSLHF
B9: DOMAIN_2223 (protein, listed as Pongo sp.)
chain: MAQGLVTFRDVAIEFSLEEWKCLEPAQRDLYREVTLENFGHLASLGLSISKPDVVSLLEQGKEPWMIANDVTGPWYPDLES
B10: DOMAIN_1952 (protein, listed as Pongo sp.)
chain: MANATGSGVEQKFQGSVSFKDVTVGFTQEEWQHLDPSQRALYRDVMLENYSNLVSVGYCVHKPEVIFRLEQGEEPWKLEEE
B11: DOMAIN_1561 (protein, listed as Gorilla sp.)
chain: MNMEGLVMFQDLSIDFSQEEWECLDAAQKDLYRDVMMENYSSLVSLGLSIPKPDVISLLEQGKEPWMVSRDVLGGWCRGLE
B12: DOMAIN_2245 (protein, listed as Pongo sp.)
chain: MAHLMMFRDVAVDFSQEEWECLDLEQRDLYRDVMLENYSNMVSLGLCIYQPEAFSLLEKGKDPWKILRDETRRPCPDMQSR
B13: DOMAIN_1818 (protein, listed as Gorilla sp.)
chain: MAAGQREARPQVSLTFEDVAVLFTRDEWRKLAPSQRNLYRDVMLENYRNLLSLGLPFTKPQVISLLQQGEDPWEVEKEGSG
B14: DOMAIN_2744 (protein, listed as Hylobates sp.)
chain: B13 chain with L51V, Q61K, E74K, E78D, G79S
B15: DOMAIN_1523 (protein, listed as Gorilla sp.)
chain: EELVGQNHGMEGEACTGGDVTFSDVAIDFSHEEWACLDTAQRDLYKDVMVQNYENLVSVGLSVTKPYVIMLLEDGKEPWMM
B16: DOMAIN_32334 (protein, listed as Homo sapiens)
chain: EPLKFRDVAIEFSLEEWQCLDTIQQNLYRNVMLENYRNLVFLGIVVSKPDLITCLEQEKEPWTRKRHRMVAEPPVICSHF
B17: DOMAIN_2391 (protein, listed as Pongo sp.)
chain: MINAQELLTLEDVTVEFTWEEWQLLDPFQKDLYRDVTLEIYSNLVSMGYQVSKPDALSKLEQGEEPWTMEDERHSRICPGT
B18: DOMAIN_2398 (protein, listed as Pongo sp.)
chain: EGEAQKRKAEESGMPLTQGHLTFRDVAIEFSQEEWKCLDPVQKALYRDVMLENYRNLVSLGICLPDLSIFSMMKQRTESWT
B19: DOMAIN_2376 (protein, listed as Pongo sp.)
chain: MTKAQESLTLKDVAVDFTWEEWQLLGPAQKRLYRDVMLENYSNLVSVGYQASKPDALTKLEQGEPLWTLEDEIHSPAHPEI
B20: DOMAIN_2295 (protein, listed as Pongo sp.)
chain: HRVGLIRSYNSKTMTCFQELVTFRDVAIDFSRQEWEYLDPNQRDLYRDVMLENYRNLVSLGGHSISKPVVVDLLERGKEPW
B21: DOMAIN_2470 (protein, listed as Pongo sp.)
chain: MNVEVVKVMPQDLVTFKDVAIDFSQEEWQWMNPAQKCLYRSMMLENYQSLVSLGLCISKPYVISLLEQGREPWEMTSEMTR
B22: DOMAIN_1539 (protein, listed as Gorilla sp.)
chain: MIEYQIPVSFKDVVVGFTQEEWHRLSPAQRALYRDVMLETYSNLVSVGYEGTKPDVILRLEQEEAPWIGEAACPGCHCWGK
B23: DOMAIN_1822 (protein, listed as Gorilla sp.)
chain: MAVDLLSAQERVTFRDVAVFFSQDEWLHLDSAQRALYREVMLENYSILVSLGIPFSMPKLIHQLQQGEDPCMVEREVPSDT
B24: DOMAIN_2576 (protein, listed as Pongo sp.)
chain: MAAVSPTTRCQESVTFEDVAVVFTDEEWSHLVPTQRDLYKEVMLENYNSIVSLGLPVPQPDVIFQLKRGDKPWMVDLHGSE
B25: DOMAIN_1457 (protein, listed as Gorilla sp.)
chain: MGPLQFKDVAIEFSLEEWHCLDTAQRNLYRDVMLENYRNLVFLGIVVSKPDLIARLEQGKKPLTMKRHEMVANPSGPGVVV
B26: DOMAIN_2299 (protein, listed as Pongo sp.)
chain: EETQGELTSSCGSKTMANVSLAFRDVSIDLSQEEWECLDPVQRDLYKDVMLENYSNLVSLGYTIPKPDVITLLEQEKEPWI
B27: DOMAIN_32321 (protein, listed as Homo sapiens)
chain: TQPDEDLHLQAEETQLVKESVTFKDVAIDFTLEEWRLMDPTQRNLHKDVMLENYRNLVSLGLAVSKPDMISHLENGKGPW
B28: DOMAIN_1565 (protein, listed as Gorilla sp.)
chain: LAPEDHGSSYEGSVSFRDVAIDFSREEWRHLDPSQRNLYRDVMLETYSHLLSVGYQVPEAEVVMLEQGKEPWALQGERPRQ
B29: DOMAIN_2255 (protein, listed as Pongo sp.)
chain: B28 chain with E4D, Q81H
B30: DOMAIN_2208 (protein, listed as Pongo sp.)
chain: MSQVTFSDVAIDFSHEEWACLDSAQRDLYKDVMVQNYENLVSVGLSITKPYVIMLLEDGKEPWMMEKKLSKVYPFPLSHSV
B31: DOMAIN_1946 (protein, listed as Pongo sp.)
chain: GESLESRVTLGSLTAESQELLTFKDVSVDFTQEEWGQLAPAHRNLYREVMLENYGNLVSVGYQLSKPGVISQLEKGEEPWL
B32: DOMAIN_1381 (protein, listed as Gorilla sp.)
chain: MAAMPLKARYQEMVTFEDVAVHFTKTEWTGLSPAQRALYRSVMLENFGNLTALGYPVPKPALISLLEGGDMAWGLEAQDDP
B33: DOMAIN_1964 (protein, listed as Pongo sp.)
chain: MTLLTFRDVAIEFSLEEWKCLDLAQQNLYRDVMLENYRNLFSIGLTVSKPGLITCLEQRKEPWNVKRQEAVDGHPGWCSGV
B34: DOMAIN_1790 (protein, listed as Gorilla sp.)
chain: MLQTVWFQEPVTFEDVAVYFTQNEWASLHPTQRALYREVMLENYANVTSLSAFPFPKPDLIFQLEQGEAAWGPDPWTLAGG
B35: DOMAIN_32386 (protein, listed as Homo sapiens)
chain: NMEGLVMFQDLSIDFSQEEWECLDAAQKDLYRDVMMENYSSLVSLGLSIPKPDVISLLEQGKEPWMVSRDVLGGWCRDSE
B36: DOMAIN_1378 (protein, listed as Gorilla sp.)
chain: MHLTAWPQKSVTFEDVAVYFTQAEWDGLSPAQRALYRDVMLENYGNVASLGFPLLKPAVISQLEGGGELGGPSPLAAGTGL
B37: DOMAIN_2034 (protein, listed as Pongo sp.)
chain: B36 chain with A34T, T79R
B38: DOMAIN_1578 (protein, listed as Gorilla sp.)
chain: MVHGSVTFRDVAIDFSQEEWECLQPDQRTLYRDVMLENYSHLISLAGSSISKPGVITLLEQEKEPWMVVRKETSRWYPDLE

System: HBEGF locus
Assay type: cell-based, human
[1] = high-throughput screen of dXR repression of the HBEGF gene, change in abundance of each domain in the library before and after diphtheria toxin selection
[2] = fold change in abundance of each repressor domain in the dXR library before vs after diphtheria toxin selection, dXR repression of the HBEGF gene, domains meeting p-value <0.01 and log2(fold change) >2

Molecule	Log2 (fold change) [1]	Log2 (fold change) [2]
B1	2.5576	
B2	3.0579	
B3	2.9337	
B4	2.3898	
B5	2.8348	
B6	2.7323	
B7	2.215	
B8		2.0727
B9	2.6106	
B10	3.0762	
B11	2.8783	
B12	3.2712	
B13	3.2866	
B14	2.863	
B15	2.8607	
B16		2.8117
B17	2.4608	
B18	3.3125	
B19	2.1539	

Molecule	Log2 (fold change) [1]	Log2 (fold change) [2]
B20	3.2816	
B21	2.3815	
B22	2.9337	
B23	2.4697	
B24	3.1733	
B25	2.6896	
B26	2.5125	
B27		3.0441
B28	2.771	
B29	3.1952	
B30	2.3044	
B31	3.1449	
B32	4.1424	
B33	2.3009	
B34	3.0669	
B35		3.5521
B36	3.2279	
B37	3.7415	
B38	3.4875	

Substitutions are numbered along the chain they refer to. Read-outs that look alike come from different tables or passages of the source.
